About 4,300 (8.3%) of roughly 52,000 compounds were called active. Rule as the data show it: active = survival mostly below about 52% (no sharp cut-off); inactive = mostly above about 56%. This is one part of the list.

The assay deals with DeltatarO mutant. Put plainly: S. aureus survival, RN4220 and DeltatarO strains – OD600, teichoic acid synthesis inhibitors, primary screen (AID 463173). The conditions noted are these: S. aureus RN4220 wild type/DeltatarO growth, OD600, 18 h, active compounds read low, screened at 18.75 µg/mL (by protocol).
As to `COc1ccc(CNC(=O)c2sc3nc4n(c(=O)c3c2C)CCC4)cc1`, the survival is inactive: 82%.

`COc1ccc(-n2ccn(CC(=O)Nc3ccc(C)cc3C)c(=O)c2=O)cc1`: the survival is inactive: 79%.

`COc1ccc2c(c1)c1c(c(=O)n(-c3cccc(C)c3)c(=O)n1CC(=O)NCc1ccc(C)cc1)n2C`: the survival was inactive: 87%.

For `COc1ccc(-c2cc(C(=O)NCCc3ccccc3)c3c(-c4ccc(Cl)cc4)[nH]nc3n2)cc1`, the survival is inactive: 93%.

On to `COc1ccc(CCNC(=O)CS(=O)(=O)Cc2nc(-c3cccc(Cl)c3)oc2C)cc1OC`, for which the survival is inactive: 64%.

Turning to `CC(C)c1ccccc1NC(=O)Cn1cnc2c1c(=O)n(C)c(=O)n2C`, the survival was inactive: 87%.

As to `COc1ccc(CNC(=O)c2cccn2-c2nnc(N3CCCCC3)s2)c(OC)c1`, the survival was active: 0%.

As for `O=C(NCc1cccnc1)c1c(O)c2cccc3c2n(c1=O)CC3`, the survival is inactive: 84%.

`O=C(Cn1c(=O)n(Cc2ccc(C(=O)NCc3ccc4c(c3)OCO4)cc2)c(=O)c2ccccc21)Nc1ccccc1F`: the survival was inactive: 80%.

For `O=C(CCS(=O)(=O)c1cc(Br)cc2c1N(C(=O)C1CC1)CC2)N1CCN(c2cccc(C(F)(F)F)c2)CC1`, the survival is inactive: 59%.

On to `Cc1ccc(CSc2nc3ccncc3n2Cc2nc(-c3ccccc3C)oc2C)cc1`, for which the survival is active: -4%.

Take `Cc1cccc(N2C(=O)N(Cc3cccc(C#N)c3)c3ccccc3S2(=O)=O)c1`: the survival is inactive: 88%.

Take `CCCNC(=O)c1c(NC(=O)c2ccccc2)sc2c1CCC(C(C)(C)C)C2` (stereo not given): the survival was active: 9%.

`Cc1cccc(CCNC(=O)CCS(=O)(=O)c2cc3c(cc2C)NC(=O)CO3)c1`: the survival was inactive: 95%.

On to `CCc1nnc2c(Nc3ccccc3Br)nc3ccccc3n12`, for which the survival was inactive: 93%.

With `Cn1cnc(S(=O)(=O)N2CCC(C(=O)Nc3ccc(Cl)c(C(F)(F)F)c3)CC2)c1`, the survival was inactive: 83%.

Turning to `Cc1nn(-c2ccccc2)c2sc(C(=O)N(CC(=O)NC3CCCC3)C3CC3)cc12`, the survival is inactive: 78%.

As for `CCOC(=O)N1CCC2(CC1)OC(=O)C(C)=C2C(=O)NCc1ccccc1OC`, the survival was inactive: 79%.

In the case of `COc1ccccc1N1CCN(C(=O)CNS(=O)(=O)c2ccc(Br)s2)CC1`, the survival is inactive: 116%.

Consider `CCc1cccc(NS(=O)(=O)c2ccc3c(c2)N(CC(=O)OC)C(=O)CS3)c1`, for which the survival was inactive: 92%.

On to `Cc1ccc(OCC(=O)Nc2ccc3nn(-c4ccc(C)cc4)nc3c2)cc1`, for which the survival was inactive: 55%.

Consider `COC(=O)c1cc(C)nc2c1c(=O)nc(SCc1ccccc1Cl)n2C1CC1`, for which the survival was inactive: 71%.

In the case of `CCN1CCN(C(c2ccc(F)cc2)c2sc3nc(-c4ccco4)nn3c2O)CC1` (stereo not given), the survival is inactive: 135%.

For the compound `Cc1ccc(S(=O)(=O)CCC(=O)N2CCN(c3nc4c(C)c(C)ccc4s3)CC2)cc1`, the survival was inactive: 92%.

`COc1ccc(N2CCN(C(c3ccc(F)cc3)c3sc4nc(-c5ccco5)nn4c3O)CC2)cc1` (stereo not given): the survival was inactive: 93%.

In the case of `CCc1cc(=O)[nH]c(SCc2nc(-c3ccc(C(F)(F)F)cc3)no2)n1`, the survival was active: 32%.

On to `CC(=O)N1CCCC1c1nc2ccccc2n1Cc1ccccc1F` (stereo not given), for which the survival was inactive: 61%.

Regarding `CCC(C)NC(=O)c1cnn(-c2cccc(F)c2)c1-n1cccc1` (stereo not given), the survival is inactive: 103%.

Take `Cc1cccc(C(C)C)c1NC(=O)c1ccc2c(c1)CCCN2S(C)(=O)=O`: the survival is inactive: 90%.

For the compound `Cc1cc(Cl)ccc1OCC(=O)N(Cc1ccc(N(C)C)cc1)C1CCS(=O)(=O)C1` (stereo not given), the survival is active: 39%.

Values taken from PubChem BioAssay AID463173 (ICCB-Longwood Screening Facility, Harvard Medical School, 2010).
